From the supplement of paper PMC4967469

Experiments:
Assay in all cases: Viability of human cancer cell lines after 72 h of drug (GDSC screen)
[1] = compound: c1ccc2c(CCNc3ccc(Nc4ccncc4)cc3)c[nH]c2c1 [JNJ-26854165]; details: top dose 10 µM
Experimental: (§1)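 Human cancer cell lines in 384-well plates, medium with 10% serum, drug for 72 h over a 256-fold dose range (nine 2-fold or five 4-fold steps up to the top dose). Adherent lines were fixed and stained with the nucleic acid dye Syto60, suspension lines read with resazurin; signal relative to control wells, capped at 0 and 100%. One two-parameter sigmoid per drug and line, fitted in a mixed model over all curves with the slope shared within a line.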

[2] = compound: CN1CCN(c2ccc([N+](=O)[O-])c3no[n+]([O-])c23)CC1 [NSC-207895]; details: top dose 20 µM; top dose inferred
Experimental: as §1

[3] = compound: Cc1sc2c(c1C)C(c1ccc(Cl)cc1)=N[C@@H](CC(=O)OC(C)(C)C)c1nnc(C)n1-2 [JQ1]; details: top dose 1 µM; screen: GDSC drug entry 1218; top dose inferred
Experimental: as §1

[4] = compound: CCOc1nc(NC(=O)Cc2cc(OC)ccc2OC)cc(N)c1C#N [JNK Inhibitor VIII]; details: top dose 10 µM; top dose inferred
Experimental: as §1

[5] = compound: O=C(/C=C/c1cccc(S(=O)(=O)Nc2ccccc2)c1)NO [Belinostat]; details: top dose 20 µM; top dose inferred
Experimental: as §1

[6] = compound: COCC[n+]1c2c(n(Cc3cnccn3)c1C)C(=O)c1ccccc1C2=O [YM155]; details: top dose 5.12 µM
Experimental: as §1

[7] = compound: CC(=O)O[C@@]12CO[C@@H]1C[C@H](O)[C@@]1(C)C(=O)[C@H](O)C3=C(C)[C@@H](OC(=O)[C@H](O)[C@@H](NC(=O)OC(C)(C)C)c4ccccc4)C[C@@](O)([C@@H](OC(=O)c4ccccc4)[C@H]21)C3(C)C [Docetaxel]; details: top dose 0.0125 µM
Experimental: as §1

[8] = compound: CC1(C)CNc2cc(NC(=O)c3cccnc3NCc3ccncc3)ccc21 [AMG-706]; details: top dose 2 µM; top dose inferred
Experimental: as §1

[9] = compound: Cc1ccc(C(=O)N(CCCN)[C@@H](c2nc3cc(Cl)ccc3c(=O)n2Cc2ccccc2)C(C)C)cc1 [SB-715992]; details: top dose 0.128 µM; top dose inferred
Experimental: as §1

Row | Cell Line | AUC [1] | pIC50 [1] | AUC [2] | pIC50 [2] | AUC [3] | pIC50 [3] | AUC [4] | pIC50 [4] | AUC [5] | pIC50 [5] | AUC [6] | pIC50 [6] | AUC [7] | pIC50 [7] | AUC [8] | pIC50 [8] | AUC [9] | pIC50 [9]
1 | ESO26 (oesophagus, adherent) | 0.944 | < 5.00 | 0.862 | 4.81 | 0.988 | < 6.00 | 0.988 | < 5.00 | 0.349 | 6.31 | 0.026 | > 7.70 | 0.823 | 8.17 | 0.984 | < 5.70 | 0.556 | 7.95
2 | FLO-1 (oesophagus, adherent) | 0.868 | < 5.00 | 0.804 | 4.80 | 0.973 | < 6.00 | 0.955 | < 5.00 | 0.53 | 5.81 | 0.043 | > 7.70 | 0.491 | 9.14 | 0.894 | < 5.70 | 0.829 | < 6.89
3 | Hey (ovary, adherent) | 0.851 | 5.16 | 0.838 | 4.91 | 0.949 | < 6.00 | 0.948 | < 5.00 | 0.343 | 6.33 | 0.031 | > 7.70 | 0.61 | 8.81 | 0.958 | < 5.70 | 0.965 | < 6.89
4 | JHOS-2 (ovary, adherent) | 0.942 | < 5.00 | 0.425 | 6.12 | 0.97 | < 6.00 | 0.973 | < 5.00 | 0.5 | 5.90 | 0.033 | > 7.70 | 0.692 | 8.53 | 0.909 | < 5.70 | 0.972 | < 6.89
5 | JHOS-3 (ovary, adherent) | 0.91 | < 5.00 | 0.902 | < 4.70 | 0.979 | < 6.00 | 0.953 | < 5.00 | 0.817 | 4.82 | 0.074 | > 7.70 | 0.916 | < 7.90 | 0.965 | < 5.70 | 0.978 | < 6.89
6 | KMS-11 (myeloma, suspension) | 0.985 | < 5.00 | 0.808 | 5.07 | 0.782 | 6.45 | 0.984 | < 5.00 | 0.229 | 6.63 | 0.046 | > 7.70 | 0.968 | < 7.90 | 0.977 | < 5.70 | 0.788 | 7.32
7 | KYAE-1 (oesophagus, suspension) | 0.86 | 5.00 | 0.819 | 4.89 | 0.974 | < 6.00 | 0.964 | < 5.00 | 0.389 | 6.22 | 0.099 | > 7.70 | 0.915 | < 7.90 | 0.98 | < 5.70 | 0.974 | < 6.89
8 | MOLT-13 (T-cell lymphoblastic leukaemia, suspension) | 0.93 | < 5.00 | 0.837 | 4.95 | 0.653 | 6.80 | 0.988 | < 5.00 | 0.069 | > 7.11 | 0.025 | > 7.70 | 0.871 | 8.03 | 0.989 | < 5.70 | 0.555 | 7.95
9 | NCC021 (kidney, adherent) | 0.928 | < 5.00 | 0.925 | < 4.70 | 0.981 | < 6.00 | 0.969 | < 5.00 | 0.355 | 6.34 | 0.301 | 7.10 | 0.907 | < 7.90 | 0.942 | < 5.70 | 0.981 | < 6.89
10 | OACM5-1 (oesophagus, semi-adherent) | 0.972 | < 5.00 | 0.825 | 4.85 | 0.982 | < 6.00 | 0.968 | < 5.00 | 0.371 | 6.28 | 0.053 | > 7.70 | 0.98 | < 7.90 | 0.978 | < 5.70 | 0.616 | 7.76
11 | OC-314 (ovary, adherent) | 0.884 | 5.09 | 0.645 | 5.53 | 0.99 | < 6.00 | 0.981 | < 5.00 | 0.49 | 5.93 | 0.018 | > 7.70 | 0.743 | 8.47 | 0.982 | < 5.70 | 0.737 | 7.47
12 | OV-7 (ovary, adherent) | 0.906 | < 5.00 | 0.805 | 4.76 | 0.951 | < 6.00 | 0.942 | < 5.00 | 0.441 | 6.10 | 0.112 | > 7.70 | 0.692 | 8.44 | 0.961 | < 5.70 | 0.936 | < 6.89
13 | OV-17R (ovary, adherent) | 0.95 | < 5.00 | 0.865 | < 4.70 | 0.924 | < 6.00 | 0.967 | < 5.00 | 0.332 | 6.46 | 0.057 | > 7.70 | 0.953 | < 7.90 | 0.893 | < 5.70 | 0.937 | < 6.89
14 | OV-56 (ovary, adherent) | 0.889 | < 5.00 | 0.886 | < 4.70 | 0.988 | < 6.00 | 0.942 | < 5.00 | 0.446 | 6.05 | 0.055 | > 7.70 | 0.84 | 8.09 | 0.945 | < 5.70 | 0.943 | < 6.89
15 | OVCA420 (ovary, adherent) | 0.952 | < 5.00 | 0.76 | 5.03 | 0.933 | < 6.00 | 0.981 | < 5.00 | 0.46 | 6.03 | 0.215 | 7.47 | 0.954 | < 7.90 | 0.982 | < 5.70 | 0.971 | < 6.89
16 | OVCA433 (ovary, adherent) | 0.964 | < 5.00 | 0.857 | 4.71 | 0.982 | < 6.00 | 0.981 | < 5.00 | 0.533 | 5.81 | 0.032 | > 7.70 | 0.692 | 8.54 | 0.983 | < 5.70 | 0.972 | < 6.89
17 | OVK-18 (ovary, adherent) | 0.906 | < 5.00 | 0.891 | < 4.70 | 0.98 | < 6.00 | 0.934 | < 5.00 | 0.986 | < 4.70 | 0.733 | 5.79 | 0.75 | 8.35 | 0.958 | < 5.70 | 0.986 | < 6.89
18 | PEO1 (ovary, adherent) | 0.959 | < 5.00 | 0.811 | 4.95 | 0.985 | < 6.00 | 0.959 | < 5.00 | 0.412 | 6.15 | 0.047 | > 7.70 | 0.851 | 7.99 | 0.948 | < 5.70 | 0.87 | 6.90
19 | QGP-1 (pancreas, adherent) | 0.973 | < 5.00 | 0.858 | < 4.70 | 0.966 | < 6.00 | 0.965 | < 5.00 | 0.442 | 6.10 | 0.07 | > 7.70 | 0.91 | < 7.90 | 0.954 | < 5.70 | 0.942 | < 6.89
20 | RCC-AB (kidney, adherent) | 0.928 | < 5.00 | 0.831 | 4.74 | 0.977 | < 6.00 | 0.96 | < 5.00 | 0.245 | 6.74 | 0.049 | > 7.70 | 0.842 | < 7.90 | 0.945 | < 5.70 | 0.733 | 7.34
21 | RCC-ER (kidney, adherent) | 0.807 | 5.23 | 0.975 | < 4.70 | 0.957 | < 6.00 | 0.908 | < 5.00 | 0.907 | < 4.70 | 0.899 | < 5.29 | 0.937 | < 7.90 | 0.88 | < 5.70 | 0.972 | < 6.89
22 | RCC-FG2 (kidney, adherent) | 0.753 | 5.38 | 0.982 | < 4.70 | 0.976 | < 6.00 | 0.875 | < 5.00 | 0.475 | 5.98 | 0.363 | 6.92 | 0.978 | < 7.90 | 0.872 | < 5.70 | 0.923 | < 6.89
23 | RCC-JF (kidney, adherent) | 0.76 | 5.40 | 0.77 | 5.07 | 0.981 | < 6.00 | 0.945 | < 5.00 | 0.33 | 6.40 | 0.032 | > 7.70 | 0.7 | 8.51 | 0.955 | < 5.70 | 0.754 | 7.32
24 | RCC-JW (kidney, adherent) | 0.919 | < 5.00 | 0.798 | 5.01 | 0.984 | < 6.00 | 0.916 | < 5.00 | 0.452 | 6.04 | 0.027 | > 7.70 | 0.669 | 8.63 | 0.844 | 5.83 | 0.952 | < 6.89
25 | SK-GT-4 (oesophagus, adherent) | 0.849 | < 5.00 | 0.881 | < 4.70 | 0.971 | < 6.00 | 0.974 | < 5.00 | 0.363 | 6.32 | 0.039 | > 7.70 | 0.634 | 8.70 | 0.952 | < 5.70 | 0.887 | < 6.89
26 | SK-MEL-5 (melanoma, adherent) | 0.856 | < 5.00 | 0.981 | < 4.70 | 0.979 | < 6.00 | 0.97 | < 5.00 | 0.971 | < 4.70 | 0.796 | 5.52 | 0.674 | 8.57 | 0.961 | < 5.70 | 0.966 | < 6.89

pIC50: −log10 of the molar value. By IC50 is meant the dose at which the fit gives 50% viability; a fit beyond the top or the lowest dose is shown as a bound at that dose. AUC sums up the same curve from the lowest dose to the 256-fold higher top dose; it is 1 without any effect and falls as sensitivity rises. For part of these data: A top dose marked as inferred is not printed in the source and was worked back from the curve model. For part of these data: Drugs with an entry number were screened twice under separate entries, and the two screens often disagree.
